Measurements reported in the supplement of paper PMC7125110.
± gives the standard error. Variants at the background level are over-represented here.

B1: glmS ribozyme (parent)
chain: AUAAAAGCGCCAGAACUACAGAAAUGUAGUUGACGAGGAGGAGGUUUAUCGAAUUUUCGGCGGAUGCCUCCAAA

What was measured:
Details in all cases: with glucosamine-6-phosphate
glucosamine-6-phosphate [1] = variants of: B1; assay: kcat; higher = faster cleavage; RNA array
Outline: (§1)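 A hybridised Cy3 probe tracked barcoded ribozyme variants, transcribed in situ by E. coli RNA polymerase on sequenced MiSeq chips, at 37 °C. The variants received 40 μM to 10 mM glucosamine-6-phosphate in HEPES/KCl/Mg(OAc)2 buffer. kobs came from decay fits and kcat and KM from weighted Michaelis–Menten fits.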

glucosamine-6-phosphate [2] = variants of: B1; assay: self-cleavage kobs at 40 uM GlcN6P; higher = faster cleavage; RNA array
Outline: as §1

glucosamine-6-phosphate [3] = variants of: B1; assay: self-cleavage kobs at 640 uM GlcN6P; higher = faster cleavage; RNA array
Outline: as §1

glucosamine-6-phosphate [4] = variants of: B1; assay: self-cleavage kobs at 10000 uM GlcN6P; higher = faster cleavage; RNA array
Outline: as §1

glucosamine-6-phosphate [5] = variants of: B1; assay: self-cleavage kobs at 160 uM GlcN6P; higher = faster cleavage; RNA array
Outline: as §1

glucosamine-6-phosphate [6] = variants of: B1; assay: self-cleavage kobs at 2500 uM GlcN6P; higher = faster cleavage; RNA array
Outline: as §1

| Variant | kcat (glucosamine-6-phosphate [1]) [s⁻¹] | self-cleavage kobs at 40 uM GlcN6P (glucosamine-6-phosphate [2]) [s⁻¹] | self-cleavage kobs at 640 uM GlcN6P (glucosamine-6-phosphate [3]) [s⁻¹] | self-cleavage kobs at 10000 uM GlcN6P (glucosamine-6-phosphate [4]) [s⁻¹] | self-cleavage kobs at 160 uM GlcN6P (glucosamine-6-phosphate [5]) [s⁻¹] | self-cleavage kobs at 2500 uM GlcN6P (glucosamine-6-phosphate [6]) [s⁻¹] |
| --- | --- | --- | --- | --- | --- | --- |
| G62A G63U | < 1e-05 | < 1e-05 | < 1e-05 | < 1e-05 |  |  |
| A36U A53G | < 1e-05 |  |  |  | < 1e-05 |  |
| G51A C68U | < 1e-05 |  |  |  |  |  |
| A6G C34G G59U |  | < 1e-05 |  |  |  |  |
| U30C U46C | < 1e-05 |  |  |  |  |  |
| A6G C50U |  | < 1e-05 | < 1e-05 | < 1e-05 | < 1e-05 |  |
| G7C G13U | < 1e-05 | < 1e-05 | < 1e-05 | < 1e-05 | < 1e-05 |  |
| A6G G13A C16G G32C C61U C71G |  | < 1e-05 |  |  |  | < 1e-05 |
| A6U A53G G62A |  | < 1e-05 |  |  |  |  |
| U57A A64C | < 1e-05 |  | < 1e-05 |  |  |  |
| A6G G29C |  | < 1e-05 | < 1e-05 |  | < 1e-05 | < 1e-05 |
| G13U G38A | < 1e-05 |  |  | < 1e-05 |  | < 1e-05 |
| A36U U65A | < 1e-05 |  |  |  | < 1e-05 | < 1e-05 |
| C50U G62A | < 1e-05 |  |  | < 1e-05 |  |  |
| A6G G7U C61G |  | < 1e-05 |  |  |  |  |
| A6C A12C |  | < 1e-05 |  |  |  |  |
| A6C A15C U54C C71U |  | < 1e-05 |  |  |  |  |
| A33C C61G | < 1e-05 |  |  |  |  |  |
| A6G G38U C68U |  | < 1e-05 |  |  |  | < 1e-05 |
| A12G G35U G41U G51A U55C | < 1e-05 | < 1e-05 |  |  | < 1e-05 |  |
| A6G G35C A39G G40A C61U C70A |  | < 1e-05 |  |  |  |  |
| A6U A33G |  | < 1e-05 |  |  |  |  |
| A6U A33U |  | < 1e-05 | < 1e-05 | < 1e-05 |  | < 1e-05 |
| A6U G32C G59A |  | < 1e-05 |  | < 1e-05 |  |  |
| A64G C68G | < 1e-05 | < 1e-05 |  |  | < 1e-05 |  |
| A36G G38C G51U G66U C68A | < 1e-05 |  |  |  |  | < 1e-05 |
| A12C G51A | < 1e-05 | < 1e-05 |  |  | < 1e-05 | < 1e-05 |

| Variant | kcat (glucosamine-6-phosphate [1]) [s⁻¹] | self-cleavage kobs at 40 uM GlcN6P (glucosamine-6-phosphate [2]) [s⁻¹] | self-cleavage kobs at 640 uM GlcN6P (glucosamine-6-phosphate [3]) [s⁻¹] | self-cleavage kobs at 10000 uM GlcN6P (glucosamine-6-phosphate [4]) [s⁻¹] | self-cleavage kobs at 160 uM GlcN6P (glucosamine-6-phosphate [5]) [s⁻¹] | self-cleavage kobs at 2500 uM GlcN6P (glucosamine-6-phosphate [6]) [s⁻¹] |
| --- | --- | --- | --- | --- | --- | --- |
| U47A G51A | < 1e-05 | < 1e-05 | < 1e-05 |  |  |  |
| A6C G32C A36G |  | < 1e-05 |  | < 1e-05 |  |  |
| A6G A14G A53C |  | < 1e-05 |  |  |  |  |
| A6C A14U C16G |  | < 1e-05 |  |  |  |  |
| G7A A15U G32C |  | < 1e-05 | < 1e-05 |  |  |  |
| C50A U55C | < 1e-05 |  |  |  |  |  |
| A6G G44U G62U G63A U69A |  | < 1e-05 | < 1e-05 | < 1e-05 | < 1e-05 | < 1e-05 |
| A6C U31A |  | < 1e-05 | < 1e-05 | 3.99e-05 ± 1.3e-05 |  |  |
| A6C G41U |  | < 1e-05 | < 1e-05 |  | < 1e-05 |  |
| U65G C68G | < 1e-05 |  |  |  |  |  |
| G51A U56A | < 1e-05 |  |  |  | < 1e-05 | < 1e-05 |
| A6G U47A U49A G63U |  | < 1e-05 |  | < 1e-05 |  |  |
| C11A U30G G60A | < 1e-05 |  |  |  | < 1e-05 |  |
| A53G G62U | < 1e-05 | < 1e-05 |  | < 1e-05 |  |  |
| A6U A33U U49C G59U |  | < 1e-05 | < 1e-05 |  |  | < 1e-05 |
| A6G C16G |  | < 1e-05 | < 1e-05 | 3.38e-05 ± 8.1e-06 | < 1e-05 |  |
| A6C G7C C11G U55G |  | < 1e-05 |  | < 1e-05 |  |  |
| G40C C58U | < 1e-05 | < 1e-05 |  |  | < 1e-05 |  |
| A6C U54C U55C |  | < 1e-05 |  |  |  |  |
| A6G G51U U65A |  | < 1e-05 |  | < 1e-05 |  |  |
| A6C C68A |  | < 1e-05 |  | < 1e-05 |  | < 1e-05 |
| U54C G62U | < 1e-05 | < 1e-05 |  | < 1e-05 | < 1e-05 | < 1e-05 |
| G63U C68U | < 1e-05 |  |  | < 1e-05 |  |  |
| A6G A14G G38A G63C |  | < 1e-05 |  | < 1e-05 |  |  |
| A6G A12C U45G C58U G59C G62A C68G |  | < 1e-05 |  | < 1e-05 |  |  |
| G37U G38U | < 1e-05 | < 1e-05 | < 1e-05 |  |  | < 1e-05 |
| C11U G37U | < 1e-05 |  |  |  |  |  |
